# Measured values reported in PubChem BioAssay (NCATS).
# Several values for one entry are separate records, joined by “and”; a condition that tells them apart may be missing. Identical values can stand only once. Inconclusive results, whose numbers are uncertain, are shown with a selection of clear calls. A potency beside an inconclusive call is a rough fit, not a confirmed value. Activity calls are given as the source filed them. Calls come from the whole dose curve; as a rule, active = well fitted curve in the direction sought with a large enough effect; inconclusive = small, poorly fitted or top-dose-only effect, or another doubt; inactive = no such curve, though single readings can be large; an effect the other way counts as inactive or inconclusive.
# Tests used:
# [1] = Primary qHTS for inhibitors of nuclear receptor binding SET domain protein 2 (NSD2) in an isogenic RCH-ACV NSD2 p.E1099K mutant (9B) (AID 1645876); note: nearly all actives have a fitted effect of over 70% in size
# [2] = test system: CRL-7250; test: Cytotoxic Profiling of Annotated Libraries Using Quantitative High-Throughput Screening (AID 1296008); conditions: Five cell lines viability, CellTiter-Glo ATP luminescence, 48-72 h; max response: stronger effect = lower value; note: nearly all actives have a fitted effect of over 60% in size; for max response: % is set by controls: 0 for no effect and ±100 for the full control effect
# In short: (§1)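 Compounds were pin-transferred onto cells and incubated 48 or 72 hr at 37 degree Celsius, 95% humidity. CellTiter-Glo was added, plates sat 10 min at room temperature, then ATP-coupled luminescence was imaged as the viability read-out.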
# [3] = test system: HaCat; test: as above; conditions: Five cell lines viability, CellTiter-Glo ATP luminescence, 48-72 h; max response: stronger effect = lower value
# In short: as §1
# [4] = P-glycoprotein substrates identified in KB-8-5-11 adenocarcinoma cell line, qHTS therapeutic library screen (AID 1346987); note: nearly all actives have a fitted effect of over 65% in size
# In short: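 Luminescence from CellTiter-Glo, read 5 min after addition, quantified survival of KB-8-5-11 (P-gp-overexpressing) cells exposed to compounds for 72 h. AC50 was derived from concentration-response curves.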
# [5] = test system: NIH3T3; test: Cytotoxic Profiling of Annotated Libraries Using Quantitative High-Throughput Screening (AID 1296008); conditions: Five cell lines viability, CellTiter-Glo ATP luminescence, 48-72 h; max response: stronger effect = lower value; note: nearly all actives have a fitted effect of over 60% in size; for max response: % is set by controls: 0 for no effect and ±100 for the full control effect
# In short: as §1
# [6] = test system: C33A; test: Primary qHTS to identify gynecologic anti-cancer compounds using libraries of approved drugs and bioactive compounds (AID 1345084); conditions: Gynecologic cancer cell panel viability, ATPlite luminescence, 48 h; series mostly up to 57.5 µM; note: nearly all actives have a fitted effect of over 55% in size; for activity change, negative = cytotoxicity: % is set by controls: 0 for no effect and ±100 for the full control effect
# In short: (§2)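 Cell viability after 48 h drug treatment, ATPlite luminescence readout; five doses.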
# [7] = test system: CAOV3; test: as above; conditions: Gynecologic cancer cell panel viability, ATPlite luminescence, 48 h; activity change, negative = cytotoxicity: at 57.5 µM (top of the series)
# In short: as §2
# [8] = test system: Es-2; test: as above; conditions: Gynecologic cancer cell panel viability, ATPlite luminescence, 48 h; series mostly up to 57.5 µM
# In short: as §2
# [9] = test system: HeLa; test: as above; conditions: Gynecologic cancer cell panel viability, ATPlite luminescence, 48 h; activity change, negative = cytotoxicity: at 57.5 µM (top of the series)
# In short: as §2
# [10] = test system: Hek293T; test: as above; conditions: Gynecologic cancer cell panel viability, ATPlite luminescence, 48 h, control line for the selectivity index; activity change, negative = cytotoxicity: at 57.5 µM (top of the series) unless noted
# In short: as §2
# [11] = test system: JEG-3; test: as above; conditions: Gynecologic cancer cell panel viability, ATPlite luminescence, 48 h; series mostly up to 57.5 µM
# In short: as §2
# [12] = test system: OV90; test: as above; conditions: Gynecologic cancer cell panel viability, ATPlite luminescence, 48 h; series mostly up to 57.5 µM
# In short: as §2
# [13] = test system: PA-1; test: as above; conditions: Gynecologic cancer cell panel viability, ATPlite luminescence, 48 h; series mostly up to 57.5 µM
# In short: as §2
# [14] = test system: SKOV3; test: as above; conditions: Gynecologic cancer cell panel viability, ATPlite luminescence, 48 h; series mostly up to 57.5 µM
# In short: as §2
# [15] = test system: Tov-21-G; test: as above; conditions: Gynecologic cancer cell panel viability, ATPlite luminescence, 48 h; activity change, negative = cytotoxicity: at 57.5 µM (top of the series) unless noted
# In short: as §2
# [16] = Primary qHTS for inhibitors of nuclear receptor binding SET domain protein 2 (NSD2) in an RCH-ACV wild type WT cells (2C) (AID 1645877); conditions: activity change, negative = cell killing: at 44.9 µM (top of the series) unless noted; note: nearly all actives have a fitted effect of over 70% in size
# [17] = test system: CASKI; test: Primary qHTS to identify gynecologic anti-cancer compounds using libraries of approved drugs and bioactive compounds (AID 1345084); conditions: Gynecologic cancer cell panel viability, ATPlite luminescence, 48 h; series mostly up to 57.5 µM; note: nearly all actives have a fitted effect of over 55% in size; for activity change, negative = cytotoxicity: % is set by controls: 0 for no effect and ±100 for the full control effect
# In short: as §2
# [18] = test system: Tov112D; test: as above; conditions: Gynecologic cancer cell panel viability, ATPlite luminescence, 48 h; series mostly up to 57.5 µM
# In short: as §2
# [19] = Primary fluorescence-based thiol-reactive (MSTI) qHTS assay for identification of artifact compounds. (AID 1845221);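 note: thiol-reactive compounds lower the probe fluorescence signal; nearly all actives have a fitted effect of over 65% in size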
# In short: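 Probe: MSTI 4 uM, PBS pH 7.4, 2% DMSO. Incubation 1 h, RT, light-protected. Readout fluorescence 525/598 nm.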
# [20] = test system: Zika virus NS2B-NS3 protease (unlinked complex); test: Primary screen GU Rhodamine qHTS for Zika virus inhibitors: Unlinked NS2B-NS3 protease assay (AID 1347159); note: nearly all actives have a fitted effect of over 60% in size
# In short: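 Percent inhibition came from the 15-min rise in Rhodamine110 fluorescence (1.5 microM substrate, ~15% conversion), normalized to no-inhibitor and no-enzyme wells and Hill-fitted. Unlinked protease, 25 nM, pH 8.0 Tris buffer; compounds up to 114 microM, 15-min preincubation.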
# Potency is the fitted concentration of half-maximal effect; tags give direction and shape of the fitted curve.
smiles,measurement,setting,value
O=C1NCCc2[nH]c(-c3ccncc3)cc21,Potency,[1],active: 2.35 µM
same,Potency,[2],active: 7.43 µM
same,Potency,[3],"inconclusive: 37.2 µM [inhibitor, single point]"
C[C@@H]1C[C@H]2O[C@@H]2/C=C\C=C\C(=O)Cc2c(Cl)c(O)cc(O)c2C(=O)O1,Potency,[4],active: 438 nM and active: 5.7 µM
same,Potency,[1],active: 488 nM and active: 640 nM
same,Potency,[2],"inconclusive: 1.55 µM [inhibitor, partial curve]"
same,Potency,[3],"inconclusive: 0.438 µM [inhibitor, full curve, poor fit]"
same,Potency,[5],active: 1.74 µM
same,Potency,[6],"inconclusive: 5.01 µM [cytotoxic, single point]"
same,Potency,[7],"inconclusive: 3.16 µM [cytotoxic, partial curve, poor fit]"
same,Potency,[8],"inconclusive: 2.51 µM [cytotoxic, partial curve]"
same,Potency,[9],"inconclusive: 3.16 µM [cytotoxic, partial curve, poor fit]"
same,Potency,[10],"inconclusive: 2.51 µM [cytotoxic, partial curve, poor fit]"
same,Potency,[11],"inconclusive: 447 nM [cytotoxic, full curve, poor fit]"
same,Potency,[12],"inconclusive: 11.2 µM [cytotoxic, single point]"
same,Potency,[13],"inconclusive: 7.08 µM [cytotoxic, single point]"
same,Potency,[14],"inconclusive: 1.26 µM [cytotoxic, single point]"
same,Potency,[15],"inconclusive: 1 µM [cytotoxic, partial curve]"
CNC(=O)c1ccccc1Sc1ccc2c(/C=C/c3ccccn3)n[nH]c2c1,Potency,[1],active: 750 nM and active: 916 nM and active: 4.17 µM
same,Potency,[16],active: 531 nM and active: 1.03 µM and active: 833 nM
same,Potency,[2],"inconclusive: 5.31 µM [inhibitor, single point] and active: 5.8 µM"
same,Potency,[3],"inconclusive: 29.9 µM [inhibitor, single point] and inconclusive: 3.26 µM [inhibitor, full curve]"
same,Potency,[6],"inconclusive: 39.8 µM [cytotoxic, single point] and inconclusive: 22.4 µM [cytotoxic, single point]"
same,Potency,[7],active: 10 µM and active: 8.91 µM
same,Potency,[17],"active: 11.2 µM and inconclusive: 15.8 µM [cytotoxic, partial curve]"
same,Potency,[8],active: 15.8 µM and active: 17.8 µM
same,Potency,[10],active: 10 µM and active: 12.6 µM
same,Potency,[11],"inconclusive: 31.6 µM [cytotoxic, single point] and inconclusive: 10 µM [cytotoxic, partial curve, poor fit]"
same,Potency,[12],active: 11.2 µM
same,Potency,[13],"inconclusive: 8.91 µM [cytotoxic, partial curve, poor fit]"
same,Potency,[14],"inconclusive: 20 µM [cytotoxic, partial curve, poor fit]"
same,Potency,[18],"active: 8.91 µM and inconclusive: 10 µM [cytotoxic, partial curve, poor fit]"
Oc1ccc2c(-c3c(-c4ccccn4)nn4c3CCC4)ccnc2c1,Potency,[1],"inconclusive: 23 µM [inhibitor, single point]"
same,Potency,[16],"inconclusive: 29 µM [inhibitor, single point]"
same,Potency,[19],"inconclusive: 4.74 µM [inhibitor, partial curve, poor fit]"
same,max response,[2],inactive: -1.66%
same,outcome,[3],inactive
same,Potency,[5],active: 13 µM
same,Potency,[11],inactive
same,Potency,[14],inactive
CC(=O)SCC(=O)c1ccc(NS(=O)(=O)c2ccc(OCCCN(C)C)cc2)nc1,Potency,[4],"inconclusive: 11.6 µM [inhibitor, partial curve]"
same,Potency,[20],"inconclusive: 44.7 µM [inhibitor, partial curve, poor fit]"
same,Potency,[16],active: 1.15 µM
same,Potency,[19],"inconclusive: 2.38 µM [inhibitor, partial curve, poor fit]"
same,Potency,[2],"inconclusive: 6.51 µM [inhibitor, partial curve]"
same,Potency,[3],active: 14.6 µM
same,Potency,[5],"inconclusive: 16.4 µM [inhibitor, partial curve]"
same,Potency,[6],"inconclusive: 17.8 µM [cytotoxic, partial curve, poor fit]"
same,Potency,[17],"inconclusive: 22.4 µM [cytotoxic, partial curve, poor fit]"
same,Potency,[8],active: 14.1 µM
same,Potency,[10],"inconclusive: 15.8 µM [cytotoxic, partial curve]"
same,Potency,[11],active: 15800 nM
same,Potency,[12],"inconclusive: 2.24 µM [cytotoxic, full curve]"
same,Potency,[13],active: 2.82 µM
same,Potency,[14],"inconclusive: 35.5 µM [cytotoxic, single point]"
same,Potency,[15],active: 11.2 µM
same,Potency,[18],"inconclusive: 15.8 µM [cytotoxic, partial curve, poor fit]"
